Changes are numbered by the printed parent chain. Blank lines part the entries; values can stand above or below the molecule they belong to.
Key:
α1β1, α2β1 and/or α10β1 = test: Counter-screen for cross-reactivity to other collagen receptors; type: binding, human
Experimental: Wistar rats were immunized with recombinant human α11β1 protein. An enzyme-linked immunosorbent assay (ELISA) was used to test an immune response against target human and mouse proteins. Subsequently, cell fusion (by electro fusion) was performed with animals that produced a good immune response. All fused cells were plated in a 96-well plate and supernatants were screened by ELISA against soluble human and mouse α11β1. Positive clones were counter-screened against human α1β1, α2β1 and α10β1. […] Purified antibodies were then generated from the selected clones and heavy chain and light chain variable domain sequences were obtained from each purified antibody.
10 mice from 5 different strains were immunized with an appropriate mixture of human α11β1, mouse α11β1 and tolerance breaking protein. Plasma titers were evaluated by ELISA against a mixture of human and mouse α11β1. Popliteal, inguinal, and iliac lymph nodes were collected. ELISA-positive anti-human/mouse α11β1 hybridomas were expanded and subjected to a secondary screen against human and mouse α11β1, control HIS protein, and a counter-screen was performed against human […], α2β1 and α10β1. Supernatant IgG concentration was sufficient for functional screening. Selected hybridomas satisfying all the criteria were cloned and clonal hybridomas were confirmed by ELISA against human and mouse α11β1 and subsequently scaled-up and IgGs were purified. Heavy and light chain variable regions of selected hybridomas were then sequenced.
α11β1 belongs to a family of collagen receptors and has a relatively high homology to them. Therefore, the novel antibodies of this invention were counter-screened against α1β1, α2β1 and/or α10β1. Table 2 includes results of cross-reactivity to the other receptors.

human α11β1 = human α11β1 (Homo sapiens, UniProt Q9UKX5); test: ELISA binding to recombinant human α11β1; settings: binding Yes/No
Experimental: (§1) 0.25 μg/mL of target antigen (recombinant human or mouse α11β1) was plated in a 96-well plate over night at 4° C. Plates were washed (PBS with 0.1% Tween-20), blocked (PBS with 2% BSA and 0.05% Tween-20) for 1 hour at room temperature and incubated with a range of antibody concentrations for 1 hour at room temperature. Subsequently, plates were washed and incubated with biotinylated anti-rabbit/mouse/human IgG in a 1:1000 dilution buffer and incubated for 1 hour at room temperature. After washing the plates, Streptavidin HRP was added at 1:200 in dilution buffer and incubated for 1 hour at room temperature. Ultra TMB ELISA substrate solution was added and the plates incubated for 5 minutes on a plate shaker. The reaction was stopped by adding stop solution to each well and plates were read at 450 nm.

mouse α11β1 = mouse α11β1 (Mus musculus, UniProt P61622); test: ELISA binding to recombinant mouse α11β1; settings: binding Yes/No
Experimental: as §1

[1] = tested on: Human Pulmonary Fibroblasts; test: Fibroblast-to-Myofibroblasts Transition (FMT), αSMA expression; type: cell-based; settings: for Inhibition of FMT: Yes/No
Experimental: Human Pulmonary Fibroblasts (ScienCell) were cultured in complete Fibroblast Growth Medium (ScienCell) until 80% confluent. Cells were washed and harvested using Accutase. Cells were seeded onto tissue culture-treated 96 well plates at 20,000 cells/well in complete Fibroblast Growth Medium. After 24 hours, cells were washed and starved in serum reduced medium for an additional 24 hours. After starvation, cells were treated with TGFβ-1 (R&D Systems) with or without anti-α11 antibodies. A polyclonal rabbit anti-human α11 antibody was used as a positive control. Appropriate IgG isotype controls were also included. After 48 hours, cells were harvested, fixed, permeabilized and stained with AlexaFluor488 Labeled Anti-αSMA (α-smooth muscle actin) (Invitrogen). Cells were acquired on a FACS Verse (Benton Dickson) to determine expression levels of αSMA. Data were analyzed by gating on single cells and determining the geometric Mean Fluorescence Intensity (gMFI) in the FITC channel for each sample. gMFI for each sample was normalized to the untreated control and presented as % inhibition.
In addition to the binding abilities described above, it is important for an anti-α11β1 antibody to inhibit the fibroblast-to-myofibroblast transition (FMT). It is now appreciated that myofibroblasts are a heterogeneous cell population, existing in different activation states, with the main function of producing and contracting collagen extracellular matrix (ECM). FMT is a multi-step event that is controlled by a changing mechanical environment in tissues undergoing repair. TGFβ is one of the potent factors that potentiates this process and alpha smooth muscle actin (αSMA) is one of the main markers that becomes overexpressed when fibroblasts are undergoing the transition to becoming myofibroblasts. The presence of αSMA enhances fibroblast contraction and guides myofibroblast activation through an intracellular feedback loop. Because αSMA is the main molecular marker of myofibroblasts, the ability of the novel anti-α11β1 mAbs to inhibit αSMA expression in TGFβ-induced FMT was tested.

myofibroblasts (MF) = test: FACS antibody binding to myofibroblasts; parameters: species or system human; settings: binding Yes/No
Experimental: Human Pulmonary Fibroblasts (ScienCell) were cultured in complete Fibroblast Growth Medium (ScienCell) until 80% confluent in T-150 flasks. Cells were washed and harvested using Accutase. Cells were seeded into T-150 flasks at 7,500 cells/cm^2 in complete FGF and cultured for 72 hours. Cells were then washed and starved in serum reduced medium for 24 hours. After starvation, cells were treated with TGFβ-1 (R&D Systems) for 72 hours. Cells were harvested using Accutase and seeded in 96-well conical bottom plates. Cells were blocked with Heat Inactived Fetal Bovine Serum (Gibco) for 30 minutes at 4° C. Cells were then incubated with anti-α11 antibodies at the doses described in each figure for 30 minutes at 4° C. A human anti-α11 antibody (Creative BioLabs) was included as a positive control as well as the appropriate IgG isotype negative controls. Cells were washed twice and incubated with PE conjugated secondary antibodies specific to the IgG class of the anti-α11 antibodies being tested for 30 minutes at 4° C. Cells were washed twice and fixed in 1% PFA for 30 minutes. Cells were acquired on a FACS Verse […]. Data were analyzed by gating on single cells and determining the geometric Mean Fluorescence Intensity (gMFI) in the PE channel for each sample.
Binding to a physiologically relevant primary human cell type was also tested. Human pulmonary fibroblasts (HPF) and TGFβ treatment were used to induce a fibroblast-to-myofibroblast transition (FMT), giving rise to myofibroblasts (MF). […] Additionally, HPFs express α11 and α2β1, other collagen binding receptors, which means that HPFs can be to test cross-reactivity of antibodies of interest.

Sequence of human α11β1 (Q9UKX5 23-1141 limits assumed): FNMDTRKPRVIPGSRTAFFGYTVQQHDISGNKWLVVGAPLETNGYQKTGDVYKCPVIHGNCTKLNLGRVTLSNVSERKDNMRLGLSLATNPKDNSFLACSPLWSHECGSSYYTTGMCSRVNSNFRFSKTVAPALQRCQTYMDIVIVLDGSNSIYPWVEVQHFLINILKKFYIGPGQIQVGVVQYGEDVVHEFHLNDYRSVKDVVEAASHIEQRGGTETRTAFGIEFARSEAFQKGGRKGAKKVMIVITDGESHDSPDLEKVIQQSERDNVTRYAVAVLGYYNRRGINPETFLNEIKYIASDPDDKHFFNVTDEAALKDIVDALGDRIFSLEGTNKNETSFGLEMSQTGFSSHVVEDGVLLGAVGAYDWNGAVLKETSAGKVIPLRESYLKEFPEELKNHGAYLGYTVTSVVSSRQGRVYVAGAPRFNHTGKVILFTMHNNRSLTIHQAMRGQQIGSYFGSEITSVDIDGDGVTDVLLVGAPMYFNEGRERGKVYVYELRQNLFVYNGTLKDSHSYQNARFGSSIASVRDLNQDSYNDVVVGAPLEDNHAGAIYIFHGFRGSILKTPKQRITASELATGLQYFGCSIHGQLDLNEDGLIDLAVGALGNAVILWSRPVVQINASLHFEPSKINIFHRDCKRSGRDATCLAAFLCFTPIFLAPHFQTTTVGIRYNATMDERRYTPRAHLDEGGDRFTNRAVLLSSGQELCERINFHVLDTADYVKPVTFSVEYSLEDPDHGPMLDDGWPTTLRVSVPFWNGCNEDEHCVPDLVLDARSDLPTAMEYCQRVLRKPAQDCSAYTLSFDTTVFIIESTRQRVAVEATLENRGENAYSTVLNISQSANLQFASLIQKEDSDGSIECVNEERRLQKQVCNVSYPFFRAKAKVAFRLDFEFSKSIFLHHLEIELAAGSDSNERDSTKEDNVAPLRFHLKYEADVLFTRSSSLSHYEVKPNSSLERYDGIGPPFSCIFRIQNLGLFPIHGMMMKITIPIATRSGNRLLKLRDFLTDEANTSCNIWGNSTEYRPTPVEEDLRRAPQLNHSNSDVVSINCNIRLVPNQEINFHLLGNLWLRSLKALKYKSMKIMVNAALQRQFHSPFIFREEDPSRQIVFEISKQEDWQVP
Sequence of human α11β1 (P05556 21-728 partner limits assumed): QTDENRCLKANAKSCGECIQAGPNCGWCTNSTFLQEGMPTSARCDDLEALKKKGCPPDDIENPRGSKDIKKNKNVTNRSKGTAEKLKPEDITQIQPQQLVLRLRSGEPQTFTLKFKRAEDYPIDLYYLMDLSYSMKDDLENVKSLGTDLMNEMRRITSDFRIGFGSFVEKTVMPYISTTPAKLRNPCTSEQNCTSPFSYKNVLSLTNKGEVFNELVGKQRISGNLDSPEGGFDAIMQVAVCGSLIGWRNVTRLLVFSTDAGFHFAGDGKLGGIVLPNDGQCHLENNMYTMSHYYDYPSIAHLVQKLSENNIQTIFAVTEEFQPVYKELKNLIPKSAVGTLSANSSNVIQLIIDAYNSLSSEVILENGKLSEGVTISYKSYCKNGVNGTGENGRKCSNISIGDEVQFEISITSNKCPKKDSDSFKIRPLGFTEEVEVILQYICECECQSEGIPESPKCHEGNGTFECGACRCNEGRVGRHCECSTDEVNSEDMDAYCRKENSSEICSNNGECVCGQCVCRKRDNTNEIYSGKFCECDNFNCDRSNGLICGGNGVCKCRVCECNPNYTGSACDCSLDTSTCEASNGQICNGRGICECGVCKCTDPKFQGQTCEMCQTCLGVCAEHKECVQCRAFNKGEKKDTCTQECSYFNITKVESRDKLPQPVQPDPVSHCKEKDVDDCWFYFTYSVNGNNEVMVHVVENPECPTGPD
Sequence of mouse α11β1 (P61622 23-1141 limits assumed): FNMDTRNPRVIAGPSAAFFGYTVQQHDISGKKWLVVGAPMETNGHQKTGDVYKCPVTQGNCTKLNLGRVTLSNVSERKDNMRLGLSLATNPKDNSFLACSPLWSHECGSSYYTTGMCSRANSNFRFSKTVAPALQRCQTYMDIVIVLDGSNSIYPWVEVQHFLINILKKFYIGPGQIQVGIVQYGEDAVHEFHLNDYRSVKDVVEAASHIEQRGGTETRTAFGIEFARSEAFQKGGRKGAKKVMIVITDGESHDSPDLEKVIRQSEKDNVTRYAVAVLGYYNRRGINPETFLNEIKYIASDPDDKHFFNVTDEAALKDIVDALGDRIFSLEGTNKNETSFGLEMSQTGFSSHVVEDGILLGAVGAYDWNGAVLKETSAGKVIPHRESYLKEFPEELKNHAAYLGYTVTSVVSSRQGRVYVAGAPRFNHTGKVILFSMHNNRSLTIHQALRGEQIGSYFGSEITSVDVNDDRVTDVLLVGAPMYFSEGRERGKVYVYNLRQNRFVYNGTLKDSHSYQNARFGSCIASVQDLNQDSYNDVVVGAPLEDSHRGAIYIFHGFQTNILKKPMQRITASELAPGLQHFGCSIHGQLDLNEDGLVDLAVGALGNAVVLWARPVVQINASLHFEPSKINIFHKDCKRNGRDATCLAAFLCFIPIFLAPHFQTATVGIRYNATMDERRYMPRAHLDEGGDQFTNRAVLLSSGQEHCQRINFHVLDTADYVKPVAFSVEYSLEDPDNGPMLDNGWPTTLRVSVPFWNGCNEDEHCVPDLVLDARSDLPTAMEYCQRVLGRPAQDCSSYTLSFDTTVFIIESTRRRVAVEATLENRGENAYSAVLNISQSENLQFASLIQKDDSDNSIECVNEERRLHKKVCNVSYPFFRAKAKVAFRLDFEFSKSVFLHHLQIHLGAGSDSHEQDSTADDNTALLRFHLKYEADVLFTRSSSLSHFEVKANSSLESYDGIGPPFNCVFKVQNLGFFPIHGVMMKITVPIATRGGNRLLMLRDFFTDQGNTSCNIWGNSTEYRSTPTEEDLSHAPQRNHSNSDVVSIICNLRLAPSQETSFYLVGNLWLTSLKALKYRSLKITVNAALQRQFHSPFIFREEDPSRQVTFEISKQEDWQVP
Sequence of mouse α11β1 (P09055 21-728 partner limits assumed): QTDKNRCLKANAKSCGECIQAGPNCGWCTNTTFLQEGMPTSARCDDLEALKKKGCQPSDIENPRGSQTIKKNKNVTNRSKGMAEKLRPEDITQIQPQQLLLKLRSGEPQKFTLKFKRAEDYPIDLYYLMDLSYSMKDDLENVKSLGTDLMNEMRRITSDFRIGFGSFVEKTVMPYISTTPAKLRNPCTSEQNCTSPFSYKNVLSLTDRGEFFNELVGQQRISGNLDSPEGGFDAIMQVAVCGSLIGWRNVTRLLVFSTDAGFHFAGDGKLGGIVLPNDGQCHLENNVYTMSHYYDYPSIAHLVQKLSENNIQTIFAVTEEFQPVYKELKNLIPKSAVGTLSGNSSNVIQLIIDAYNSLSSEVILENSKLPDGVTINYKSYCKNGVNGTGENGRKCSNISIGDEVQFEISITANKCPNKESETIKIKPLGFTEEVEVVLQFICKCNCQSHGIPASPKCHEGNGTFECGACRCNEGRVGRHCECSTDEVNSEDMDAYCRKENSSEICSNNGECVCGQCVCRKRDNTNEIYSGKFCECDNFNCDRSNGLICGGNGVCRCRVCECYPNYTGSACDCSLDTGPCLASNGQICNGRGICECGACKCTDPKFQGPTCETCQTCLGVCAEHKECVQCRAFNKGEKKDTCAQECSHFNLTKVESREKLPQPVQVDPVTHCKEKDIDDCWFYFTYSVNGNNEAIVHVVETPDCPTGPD

B1: 8-G15: mouse anti-α11β1 mAb; VH SEQ ID NO: 107, VL SEQ ID NO: 108 (antibody, V domains shown)
VH: EVQLQQSGPELVKPGASVRISCKASGYTFTDYYIHWVKQKPGQGLECIGEIYPGTDNTYYSKKFRGKATLTADKSSDTAYMQLSSLTSEDSAVYFCARGDYYRGYFDVWGAGTTVTVSS
VL: DVVMTQTSLTLSVTIGQPASISCKSSQSLLHSNGKTYLNWLLQRPGQSPKFLIYLVSKLESGVPDRFSGSGSGTDFTLKISRVEAEDLGVYYCLQSTHFPWTFGGGTKLEIK
- Off Target (α1β1, α2β1 and/or α10β1): No
- Human α11β1 ELISA (human α11β1): Yes
- Murine α11β1 ELISA (mouse α11β1): No
- inhibition of αSMA expression / FMT ([1]; TGFβ-induced FMT): FMT inhibitors
- Inhibition of FMT [1]: Yes
- MF FACS (myofibroblasts (MF)): Yes

B4: 7-O8: mouse anti-α11β1 mAb; VH SEQ ID NO: 143, VL SEQ ID NO: 144 (antibody, V domains shown)
VH: EVQLQQSGPELVKPGASVKMSCKASGYTFTDYYIHWVKQKPGQGLEYIGEIYPGSGNTYYNGKFRGKATLTADKSSSTAYMQLSSLTSEDSAVYFCGSGYFDYWGQGTTLTVSS
VL: B1 VL with S8P, H31Y, R44S, F51L, I80L, L94V, S96G, W101F, G105S
- Off Target (α1β1, α2β1 and/or α10β1): Yes
- Human α11β1 ELISA (human α11β1): Yes
- Murine α11β1 ELISA (mouse α11β1): Yes/Low
- Inhibition of FMT [1]: No
- MF FACS (myofibroblasts (MF)): Yes

B5: 2-A3: mouse anti-α11β1 mAb; VH SEQ ID NO: 131, VL SEQ ID NO: 132 (antibody, V domains shown)
VH: EVQLQQSGPELVKPGASVKMSCKASGYTFTDYYMMWVKQSHGKSLEWIGDINPYNGGSSYNPKFKGRATLTVDKSSSTAYMQLNSLTSEDSAVYYCARGTYWGQGTLVTVSA
VL: B1 VL with S8P, H31D, N33A, F51R, I53M, E60D, S68T, L94W, S96G, W101Y
- Off Target (α1β1, α2β1 and/or α10β1): No
- Human α11β1 ELISA (human α11β1): Yes
- Murine α11β1 ELISA (mouse α11β1): Yes/Low
- Inhibition of FMT [1]: No
- MF FACS (myofibroblasts (MF)): No

B7: 6-O17: mouse anti-α11β1 mAb; VH SEQ ID NO: 133, VL SEQ ID NO: 134 (antibody, V domains shown)
VH: QVQLQQPGAELVKPGASVKLSCKASGYTFTSYWMHWIKQRPGQGLEWIGEINPSNGGSNYNEKFKSKATLTVDKSSSTAYMQLSSLTSEDSAVYHCKSRGYWGQGTTLTVSS
VL: DVVMTQTPLTLSVTIGQPASISCKSSQSLLDSYGKTYLNWLLQRPGQSPKRLIYLVSKLDSGVPDRFTGSGSGTDFTLKISRVEAEDLGIYYCWQGTHFPHTFGSGTKLEIK
- Off Target (α1β1, α2β1 and/or α10β1): No
- Human α11β1 ELISA (human α11β1): Yes
- Murine α11β1 ELISA (mouse α11β1): Yes/Low
- Inhibition of FMT [1]: No
- MF FACS (myofibroblasts (MF)): Yes

More lines, main results first:

- Off Target (α1β1, α2β1 and/or α10β1): No
- Human α11β1 ELISA (human α11β1): Yes
- Murine α11β1 ELISA (mouse α11β1): Yes/Low
- MF FACS (myofibroblasts (MF)): Yes
B2: 10-K10: mouse anti-α11β1 mAb; VH SEQ ID NO: 139, VL SEQ ID NO: 140 (antibody, V domains shown)
VH: B5 VH with F29I, V37L, N55T, S58T, P62Q, R67K, T100A, L107T, V108L, A112S
VL: B7 VL with Y33D, I90V, H101Y, S105G
- Inhibition of FMT [1]: No

- Off Target (α1β1, α2β1 and/or α10β1): No
- Human α11β1 ELISA (human α11β1): Yes
- Murine α11β1 ELISA (mouse α11β1): Yes/Low
- MF FACS (myofibroblasts (MF)): No
B3: 6-A15: mouse anti-α11β1 mAb; VH SEQ ID NO: 137, VL SEQ ID NO: 138 (antibody, V domains shown)
VH: EVQLQQSGPELVKPGASVKMSCKASGYTITDYYMMWLKQSHGKSLEWIGDINPYTGGTSYNQKFKGKATLTVDKSSSTAYLQLHSLTSEDSAVYYCARGAYWGQGTTLTVSS
VL: B7 VL with Y33D, I90V, H101Y, S105G
- Inhibition of FMT [1]: No

- Off Target (α1β1, α2β1 and/or α10β1): No
- Human α11β1 ELISA (human α11β1): Yes
- Murine α11β1 ELISA (mouse α11β1): No
- MF FACS (myofibroblasts (MF)): No
B6: 6-P20: mouse anti-α11β1 mAb; VH SEQ ID NO: 141, VL SEQ ID NO: 142 (antibody, V domains shown)
VH: EVQLQQSGPELVKPGASVKISCKASGYTFTDYYMNWVKQSHGRSLELIGDINPNNGGSNFNQKFRGKATLTVDKSSSTAYMELRSLTSEDSAIYYCARMGYWGQGTLVTVSA
VL: DVVMTQTPLTLSVTIGQPASISCKSSQSLLHSDGKTYLNWMFQRPGQSPKRLIYLVSKLDSGVPYRFTGGGSGTDFTLQISRVETEDLGVYYCWQGTHFPRTFGGGTKLEIK
- Inhibition of FMT [1]: No

From patent US12460006B2, “Antibodies against integrin alpha 11 beta 1” (Momenta Pharmaceuticals, Inc., priority 2019, dated 2025)
